Screen size: about 310,000 compounds; about 18,000 (5.8%) were called active. Inconclusive means that the source gave no clear call. Such entries were picked first, then a sample of the others. The call rests on the fitted dose curve; in most records, active means well fitted inhibition curve with a large enough effect; inconclusive means small, poorly fitted or top-dose-only effect, or another doubt; inactive means no such curve, though single readings can be large or run the other way. No potency is given beside an inconclusive call; the fits are too rough.
Experiment: Primary qHTS for delayed death inhibitors of the malarial parasite plastid, 48 hour incubation
Settings: P. falciparum luciferase growth in erythrocytes; series mostly up to 28.7 µM
In short: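 In quantitative HTS format, infected erythrocytes bearing luciferase-reporter parasites were treated for a single generation at 37 C. Luminescence after adding detection reagent served as the growth measure.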
In the case of O=C(COc1coc(CN2CCc3ccccc3C2)cc1=O)Nc1ccc(Cl)cc1, the Potency is reported as inconclusive [inhibitor, partial curve, poor fit]. With Cc1cc(C(C)(C)C)oc1C(=O)N(CC(=O)NC1CCCC1)Cc1ccc(Cl)cc1 the Potency was inconclusive [inhibitor, partial curve]. For CCCCCCSc1cccc(-c2nc3ccc(Cl)cn3c2NCc2ccccc2)c1, the Potency was active: 7.38 µM. With COc1ccc(C(=O)NCCS(=O)(=O)NCCc2ccccc2)cc1 the Potency was “inactive”. For Cc1ccc(NNC2CC(=O)N(c3cccc(Cl)c3)C2=O)cc1 (configuration not stated), the Potency was “inactive”. In the case of CN(C)C(=O)[C@@H]1C[C@H]1[C@@H](NC(=O)OCc1ccccc1)c1ccccc1, the Potency is reported as “inactive”. For O=C(N/N=C/c1cccc(C(F)(F)F)c1)c1cc2c(s1)-c1ccccc1CC2, the Potency was “inactive”. With CCOc1ccccc1N(C(=O)c1ccco1)C(C(=O)NC1CCCC1)c1cccnc1 (configuration not stated) the Potency was inconclusive [inhibitor, single point]. With CN(C)C(=O)C(Sc1ccc(S(=O)(=O)N2CCCC2)cn1)c1ccccc1 (configuration not stated) the Potency was active: 14.7 µM. For CCCC1CCc2c(c3ccccc3[nH]c2=O)O1 (configuration not stated), the Potency was inconclusive [inhibitor, partial curve]. With CC(C)C(NC(=O)c1ccco1)C(=O)NCC(c1ccco1)N1CCCCC1 (configuration not stated) the Potency was inconclusive [inhibitor, partial curve]. For Cc1cccnc1CNC(=O)C1CCC(=O)N(CCc2cccc(F)c2)C1 (configuration not stated), the Potency was “inactive”. For COc1c2occc2c(OC(C)=O)c2c(=O)cc(C)oc12, the Potency was “inactive”. In the case of COc1ccc(/C=N/c2c(-c3ccco3)nc3ccccn23)cc1OC, the Potency is reported as inconclusive [inhibitor, single point]. With O=C(CSc1ccc([N+](=O)[O-])cn1)Nc1nccs1 the Potency was inconclusive [inhibitor, single point]. With Cc1nc2ccccc2c(=O)n1-c1ccc(NS(=O)(=O)c2ccc(F)cc2)cc1 the Potency was inconclusive [inhibitor, single point]. With CCOc1ccc(N2C(=O)Nc3ccccc3C2(O)C(=O)NCc2ccc(F)cc2)cc1 (configuration not stated) the Potency was inconclusive [inhibitor, partial curve, poor fit]. In the case of CNS(=O)(=O)c1ccc(NC(=O)c2csc(C)c2)cc1, the Potency is reported as “inactive”. In the case of CCOC(=O)CCNC(=O)N1CCCC(CNS(=O)(=O)c2cccs2)C1 (configuration not stated), the Potency is reported as “inactive”. In the case of O=C(Cc1c[nH]c2ccccc12)NC1(C(=O)NC2CCCCC2)CCCCC1, the Potency is reported as inconclusive [inhibitor, single point]. With CCCOc1ccc(N/C=C/C(=O)c2ccc(OC)c(OC)c2)cc1 the Potency was inconclusive [inhibitor, single point]. For COCCN=c1scc(-c2ccco2)n1/N=C/c1ccc(O)c(O)c1O, the Potency was inconclusive [inhibitor, partial curve]. In the case of Oc1ccc(-c2nc3ccccn3c2NCc2ccc3c(c2)OCO3)cc1, the Potency is reported as “inactive”. For CC(C)(C)c1ccc(S(=O)(=O)NCC(=O)N2CCN(Cc3ccccc3)CC2)cc1, the Potency was “inactive”. For COc1ccc(NC(C)=O)cc1NC(C)c1nc2sc(C)c(C)c2c(=O)[nH]1 (configuration not stated), the Potency was inconclusive [inhibitor, single point]. In the case of CC(C)n1c2ccccc2c2nnc(SCC(=O)Nc3ccccc3C(=O)O)nc21, the Potency is reported as inconclusive [inhibitor, single point]. With O=C1CC(c2ccccc2F)c2c(c3ccccc3[nH]c2=O)O1 (configuration not stated) the Potency was “inactive”. In the case of CN(C)CCN(C(=O)CCS(=O)(=O)c1ccccc1)c1nc2c(F)cccc2s1, the Potency is reported as “inactive”. With CCOc1ccc(S(=O)(=O)N2CCCC(C(=O)N3CCOCC3)C2)cc1Cl (configuration not stated) the Potency was “inactive”. For OC(C#CCN1CCCCCC1)(c1ccccc1)c1cccnc1 (configuration not stated), the Potency was inconclusive [inhibitor, partial curve, poor fit]. In the case of Cc1ccc(NS(=O)(=O)c2ccc3[nH]c(=O)sc3c2)cc1, the Potency is reported as inconclusive [inhibitor, single point]. In the case of Cc1ccc(C)c(NC(=O)CN(C)C(=O)c2ccccc2OCc2c(C)noc2C)c1, the Potency is reported as inconclusive [inhibitor, single point]. In the case of CCCN(CCC)S(=O)(=O)c1ccc(Cl)c(OC)c1, the Potency is reported as “inactive”. With CCOc1ccc(-c2nc(C#N)c(NCc3ccco3)o2)cc1 the Potency was inconclusive [inhibitor, partial curve, poor fit]. For CCCNC(=O)c1ccc(N2CCC3(CC2)CC(c2cccc(Br)c2)=NO3)c(NC(=O)c2ccccc2)c1, the Potency was active: 9.28 µM. In the case of Cc1ccc(NC(=O)CCc2nc3ccccc3[nH]2)cc1C, the Potency is reported as “inactive”. For CCN(CC)c1ccc(S(=O)(=O)N2CCOCC2)cc1NC(=O)CSc1nnc(N)s1, the Potency was inconclusive [inhibitor, partial curve, poor fit]. With Cc1nn(Cc2ccc(Cl)c(Cl)c2)c(C)c1NC(=O)c1cc(C2CC2)on1 the Potency was inconclusive [inhibitor, partial curve, poor fit]. In the case of CCCCN=CC1=C(O)C(C(=O)OC)C(C)(C)CC1=O (configuration not stated), the Potency is reported as “inactive”. With Cc1c(C(=O)NC(C)c2ccccn2)oc2c(Cl)cccc12 (configuration not stated) the Potency was inconclusive [inhibitor, single point]. In the case of C[C@@H]1CC=C[C@H]2[C@H]1C(=O)N(Cc1ccccc1)[C@H]2c1ccc2ccccc2c1, the Potency is reported as active: 10.4 µM. For CCN(CC)C1CCN(C(=O)c2cc(COc3ccc(-n4cncn4)cc3)on2)C1 (configuration not stated), the Potency was inconclusive [inhibitor, partial curve, poor fit]. In the case of O=C(C1=C(O)C(=O)N(Cc2ccco2)C1c1cccnc1)c1cc2ccccc2o1 (configuration not stated), the Potency is reported as “inactive”. In the case of O=C(Nc1ccccc1O)c1ccccc1O, the Potency is reported as inconclusive [inhibitor, single point]. With O=C(NCC1CCN(S(=O)(=O)c2ccccc2)CC1)Nc1ccccc1 the Potency was inconclusive [inhibitor, partial curve, poor fit]. With O=C(N[C@H](Cc1cc(=O)[nH]c2ccccc12)C(=O)O)c1ccc(Cl)cc1 the Potency was “inactive”. With O=C(Nc1ccc(S(=O)(=O)N2CCCC2)cc1Cl)C1=COCCO1 the Potency was “inactive”. For O=C(c1cc2cc(F)ccc2[nH]1)N1CCC(Cc2ccccc2)CC1, the Potency was inconclusive [inhibitor, single point]. With CCC(C)NC(=O)c1ccccc1C(=O)NC(C)CC (configuration not stated) the Potency was “inactive”. For C/C(CC(=O)N1CCCC1)=N\NC(=O)c1cc2ccccc2cc1O, the Potency was inconclusive [inhibitor, partial curve]. For COc1cccc(/C=N/NC(=O)C(=O)N2CCCC2)c1O, the Potency was inconclusive [inhibitor, single point]. For CCC(C)(c1ccc(C(=O)OC)s1)c1ccc(C(=O)OC)s1, the Potency was inconclusive [inhibitor, partial curve, poor fit]. In the case of CCOC(=O)C1=C(CC)Nc2ccccc2N/C1=N\S(=O)(=O)c1ccccc1OC, the Potency is reported as inconclusive [inhibitor, single point]. With Cc1ccc(NC(=O)C(C)OC(=O)Cc2c[nH]c3ccccc23)cc1S(=O)(=O)N1CCOCC1 (configuration not stated) the Potency was active: 5.22 µM. For COc1ccccc1N1CCN(C(=O)CCNC(=O)Cn2ccc3ccccc3c2=O)CC1, the Potency was “inactive”. For Cc1ccsc1/C=N/NC(=O)c1sccc1C, the Potency was “inactive”. With Cc1ccc(S(=O)(=O)N(C)C)cc1NC(=O)c1ccccc1SCC(=O)N1CCCC1 the Potency was inconclusive [inhibitor, single point]. For Cc1ccc(OCC(=O)Nc2ccc3c(c2)nc(CCN2CCN(C)CC2)n3C)cc1, the Potency was inconclusive [inhibitor, single point]. For COc1cc(C(=O)NC(C)c2cnn(-c3ccccc3C)c2C)cc(OC)c1OC (configuration not stated), the Potency was inconclusive [inhibitor, partial curve]. For CCCS(=O)(=O)c1nc(S(=O)(=O)c2ccc(C)cc2)c(NCc2ccco2)s1, the Potency was active: 11.7 µM. For CCCCn1c(O)c(C(CC)=NCCc2ccccc2)c(=O)[nH]c1=O, the Potency was inconclusive [inhibitor, single point]. With COc1ccccc1CNC(=O)C(=O)NCC1CCCN1S(=O)(=O)c1cccs1 (configuration not stated) the Potency was active: 11.7 µM. In the case of COc1ccc(-n2c(SC3CCOC3=O)nc3ccccc3c2=O)cc1Cl (configuration not stated), the Potency is reported as “inactive”. With COc1ccc(NC(=O)C(C)Oc2ccc(/C(C)=N\O)cc2)cc1 (configuration not stated) the Potency was inconclusive [inhibitor, single point]. For CCCCCCCC(=O)NC(Nc1ccccc1OC)C(Cl)(Cl)Cl (configuration not stated), the Potency was inconclusive [inhibitor, single point]. With CCOC(=O)C1=CC[C@H]2c3c(c4ccccc4n3C)C(=O)C1N2C(=O)OC(C)(C)C the Potency was “inactive”. With CSc1sc(C(=O)N2CCc3ccccc32)cc1S(=O)(=O)C(C)C the Potency was inconclusive [inhibitor, single point]. For CC(=O)Oc1ccccc1N(C(C)=O)S(=O)(=O)c1cccc([N+](=O)[O-])c1, the Potency was inconclusive [inhibitor, full curve, poor fit]. For O=C(Cn1c(=O)oc2ccccc21)Nc1ccc(Cl)cc1, the Potency was “inactive”. In the case of CC1CCc2sc(C(=O)N/N=C/C3CCCCC3)cc2C1 (configuration not stated), the Potency is reported as “inactive”. In the case of Cc1cccn2c(=O)c3cc(C(=O)N4CCN(Cc5ccccc5)CC4)sc3nc12, the Potency is reported as inconclusive [inhibitor, single point]. In the case of COc1cc(C(=O)Nc2cccc(-c3nc4cc(C)ccc4o3)c2C)cc(OC)c1OC, the Potency is reported as inconclusive [inhibitor, partial curve, poor fit].

— PubChem BioAssay AID504832 (National Center for Advancing Translational Sciences (NCATS), 2011)
Potency means the concentration at half of the fitted maximal effect; tags describe the fitted curve by direction and shape.
